This note sets out measurements from the supplement of paper PMC9135407.

“And” between values parts separate entries of the source, which are not always exact repeats. Equal values may be shown once. Where a name gives a salt, the structure may show the parent alone. Among all 5,800 compounds or so, about 620 (11%) showed activity.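 How the source made its calls: active = score above a cut-off or among the top three wells of a plate; in these data no inactive exceeds 0.85.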 This is a selection; strong and weak results do not stand in their true shares.

This test deals with primary human hepatic stellate cells (donor 1). Description: scaled lipid accumulation score (0 = DMSO-like, 1 = nortriptyline-like); higher = stronger HSC inactivation (lipid re-accumulation), active = hit call of the paper. The following applies: 48 h.
Where [1] appears, read: library stock concentration: 10 mM.
Setting [2] is: library stock concentration: 3.33 mM.
Where [3] appears, read: library stock concentration: 1 mM.
Setting [4] is: library stock concentration: 80 uM.
Where [5] appears, read: library stock concentration: 400 uM.
[6] abbreviates: library stock concentration: 7 mM.
Setting [7] is: library stock concentration: 2 mM.

As to `O=C1CCC(N2C(=O)c3ccccc3C2=O)C(=O)N1` (configuration not stated) [(?)-Thalidomide], the “scaled lipid accumulation score” value under setting [1] is inactive: ≤ 0.

In the case of `O=C1CCC(N2C(=O)c3ccccc3C2=O)C(=O)N1` (configuration not stated) [Thalidomide], the “scaled lipid accumulation score” value was inactive: ≤ 0. Moreover, the “scaled lipid accumulation score” value under setting [2] is inactive: 0.023. Further, the “scaled lipid accumulation score” value (library stock concentration: 7.7 mM) is inactive: ≤ 0. Besides, the “scaled lipid accumulation score” value (library stock concentration: 19.4 mM) is inactive: ≤ -0.012. As to `O=C(OC[C@@H]1O[C@H]1c1ccccc1)Oc1ccc([N+](=O)[O-])cc1`, the “scaled lipid accumulation score” value under setting [3] was inactive: ≤ 0. For the compound `CSc1ccccc1N1CCN(CCCCCC(=O)NC2CCCc3ccccc32)CC1.Cl` (configuration not stated), the “scaled lipid accumulation score” value under setting [1] was active: 1.06. In the case of `c1cn2cc(-c3ccc4cn[nH]c4c3)nc(Nc3ccc(N4CCOCC4)cc3)c2n1` [Entospletinib], the “scaled lipid accumulation score” value runs as follows: under setting [4], inactive: ≤ 0; under setting [5], inactive: 0.023. Regarding `CCCCCCCCCCOCCC(=O)O` [4-Oxatetradecanoic acid], under setting [3], the “scaled lipid accumulation score” value was inactive: 0.156.

As for `CN/C(=N\c1ccc(C2=NNC(=O)CC2C)cc1)NC#N` (configuration not stated) [Siguazodan], the “scaled lipid accumulation score” value is inactive: ≤ 0 under setting [6] and inactive: 0.01 under setting [1]. For `COc1nc(N)nc2c1ncn2[C@@H]1O[C@H](CO)[C@@H](O)[C@@H]1O` [Nelarabine], the “scaled lipid accumulation score” value was inactive: ≤ 0 under setting [2] and inactive: ≤ 0 under setting [1]. Regarding `O=C(CCCN1CCC(O)(c2cccc(C(F)(F)F)c2)CC1)c1ccc(F)cc1` [Trifluperidol 2HCl], the “scaled lipid accumulation score” value (library stock concentration: 4.9 mM) was inactive: 0.327.

With `O=C1NC(=O)c2c1c1c3ccccc3[nH]c1n1cncc21` [Isogranulatimide], the “scaled lipid accumulation score” value under setting [2] is inactive: ≤ 0. For the compound `CN(C)CCCn1cc(C2=C(c3c[nH]c4ccccc34)C(=O)NC2=O)c2ccccc21`, the “scaled lipid accumulation score” value reads like this: under setting [2], inactive: 0.071; under setting [1], inactive: 0.777; (library stock concentration: 12.1 mM) inactive: 0.519. `CN(C)CCCn1cc(C2=C(c3c[nH]c4ccccc34)C(=O)NC2=O)c2ccccc21` [Bisindolylmaleimide I]: under setting [2], the “scaled lipid accumulation score” value is inactive: 0.663. `O=c1c2ccccc2nc2n1CCc1c-2[nH]c2ccccc12` [Rutaecarpine]: the “scaled lipid accumulation score” value under setting [2] is inactive: ≤ 0 and the “scaled lipid accumulation score” value under setting [1] is inactive: 0.58. Turning to `O=C(/C=C/C=C/c1ccc2c(c1)OCO2)N1CCCCC1` [Piperine], the “scaled lipid accumulation score” value is inactive: 0.146. Further, the “scaled lipid accumulation score” value under setting [2] was inactive: 0.026. Under setting [6], the “scaled lipid accumulation score” value was inactive: ≤ 0. Further, the “scaled lipid accumulation score” value under setting [1] was inactive: ≤ 0.

On to `COc1ccc2[nH]c(C(=O)c3ccccc3)cc2c1`, for which the “scaled lipid accumulation score” value under setting [1] is inactive: 0.038. As to `O=C(O)C(S)=Cc1c[nH]c2ccc(F)cc12`, the “scaled lipid accumulation score” value under setting [2] is inactive: ≤ -0.009 and the “scaled lipid accumulation score” value under setting [1] was inactive: 0.118. Take `CCC(=O)OCC(=O)[C@@]1(OC(=O)CC)[C@@H](C)C[C@H]2[C@@H]3CCC4=CC(=O)C=C[C@]4(C)[C@@]3(Cl)[C@@H](O)C[C@@]21C` [Beclomethasone dipropionate]: the “scaled lipid accumulation score” value was inactive: ≤ 0. Besides, under setting [2], the “scaled lipid accumulation score” value was inactive: ≤ 0. In addition, the “scaled lipid accumulation score” value under setting [1] was inactive: ≤ 0. On to `CCN1CCN(Cc2ccc(Nc3ncc(F)c(-c4cc(F)c5nc(C)n(C(C)C)c5c4)n3)nc2)CC1.CS(=O)(=O)O`, for which the “scaled lipid accumulation score” value reads like this: under setting [2], active: 0.963; under setting [1], active: 0.943. On to `COCC(=O)O[C@]1(CCN(C)CCCc2nc3ccccc3[nH]2)CCc2cc(F)ccc2[C@@H]1C(C)C` [Mibefradil dihydrochloride], for which the “scaled lipid accumulation score” value under setting [1] was inactive: ≤ -0.055 and inactive: 0.501. On to `CC(C(=O)Nc1cccc(/N=C/c2c(O)ccc3ccccc23)c1)c1ccccc1` (configuration not stated) [Salermide], for which the “scaled lipid accumulation score” value under setting [3] was inactive: ≤ 0. Turning to `CC(C)NCC(O)c1cc(O)cc(O)c1` (configuration not stated) [Metaproterenol sulfate, orciprenaline sulfate], the “scaled lipid accumulation score” value was inactive: ≤ 0. For `CC(C)NCC(O)c1cc(O)cc(O)c1` (configuration not stated) [Metaproterenol hemisulfate], the “scaled lipid accumulation score” value under setting [1] is inactive: ≤ -0.055. `CC(C)NCC(O)c1cc(O)cc(O)c1` (configuration not stated) [Metaproterenol]: the “scaled lipid accumulation score” value was inactive: 0.026 (library stock concentration: 9.5 mM) and inactive: ≤ 0 under setting [1].

Consider `CC(=O)/C(C)=N/O` [2,3-Butanedione monoxime], for which, under setting [1], the “scaled lipid accumulation score” value was inactive: 0.081. On the same count and under the same terms, then `CCCn1cnc2c1c(=O)n(CCCCC(C)=O)c(=O)n2C` [Propentofylline], with inactive: ≤ 0; and `CCCCCCCCCCCCCCSCC(=O)O` [Tetradecylthioacetic acid], with inactive: ≤ 0.

Regarding `Cl.OCCNCCCOc1cccc(Cl)c1Cl` [2,3-DCPE hydrochloride], under setting [1], the “scaled lipid accumulation score” value is active: 1.14. The same measure, in the same setting: then `CCc1cc2c(c(CC)n1)CCC(=O)N2Cc1ccc(-c2ccccc2-c2nn[nH]n2)cc1` [ZD 7155 hydrochloride], with inactive: 0.009; and `O=C(O)CN(CCN(CC(=O)O)CC(=O)O)CCN(CC(=O)O)CC(=O)O` [Diethylenetriaminepentaacetic acid], with inactive: 0.134.

On to `O=C(O)CN(CCN(CC(=O)O)CC(=O)O)CCN(CC(=O)O)CC(=O)O` [Pentetic acid], for which the “scaled lipid accumulation score” value was inactive: ≤ 0. The “scaled lipid accumulation score” value (library stock concentration: 5.1 mM) is inactive: 0.67. With `C#CCN(C)CCCOc1ccc(Cl)cc1Cl` [Clorgyline hydrochloride], the “scaled lipid accumulation score” value is inactive: 0.043. Besides, under setting [1], the “scaled lipid accumulation score” value is inactive: 0.196. `C#CCN(C)CCCOc1ccc(Cl)cc1Cl`: the “scaled lipid accumulation score” value under setting [1] is inactive: ≤ 0. Regarding `Cn1c(=O)c2c(ncn2CCO)n(C)c1=O` [Etofylline], the “scaled lipid accumulation score” value is inactive: ≤ 0. `CCc1cnn2c(NCc3ccc[n+]([O-])c3)cc(N3CCCC[C@H]3CCO)nc12` [Dinaciclib]: the “scaled lipid accumulation score” value runs as follows: under setting [4], inactive: 0.104; under setting [5], inactive: 0.036; under setting [7], inactive: 0.16; under setting [1], inactive: 0.433. Consider `CCc1cnn2c(NCc3ccc[n+]([O-])c3)cc(N3CCCC[C@H]3CCO)nc12`, for which the “scaled lipid accumulation score” value by setting is: under setting [2], inactive: 0.422; under setting [1], inactive: 0.448. Take `COC(C)(C)CCCC(C)C/C=C/C(C)=C/C(=O)O` (configuration not stated) [Methoprene acid]: under setting [3], the “scaled lipid accumulation score” value was inactive: ≤ -0.021. Turning to `O=C1NC(=O)[C@@H](c2cn3c4c(cccc24)CCC3)[C@@H]1c1c[nH]c2ccccc12` [Tivantinib], the “scaled lipid accumulation score” value runs as follows: under setting [4], inactive: ≤ -0.009; under setting [5], inactive: 0.071; under setting [7], inactive: ≤ -0.009; under setting [1], inactive: 0.169. For `Cn1nc2c3c(cccc31)C(=O)c1ccccc1-2` [JNK Inhibitor, Negative Control], under setting [2], the “scaled lipid accumulation score” value was inactive: ≤ 0. Regarding `C[C@H]1Oc2cc(cnc2N)-c2c(nn(C)c2C#N)CN(C)C(=O)c2ccc(F)cc21`, the “scaled lipid accumulation score” value under setting [4] was inactive: ≤ 0, the “scaled lipid accumulation score” value under setting [5] was inactive: ≤ 0, the “scaled lipid accumulation score” value under setting [7] was inactive: 0.031 and the “scaled lipid accumulation score” value under setting [1] is inactive: ≤ 0. Consider `O=c1cc[nH]c(=O)[nH]1` [Uracil], for which the “scaled lipid accumulation score” value under setting [2] was inactive: ≤ 0 and the “scaled lipid accumulation score” value under setting [1] was inactive: ≤ -0.001. On to `O=c1cc[nH]c(=O)[nH]1`, for which the “scaled lipid accumulation score” value under setting [1] was inactive: ≤ 0. On to `CCCCCCCCCCCCCCCCCC(=O)NCCO` [Stearoyl Ethanolamide], for which, under setting [3], the “scaled lipid accumulation score” value was inactive: ≤ 0.
